# According to PubChem BioAssay AID488969 (Vanderbilt High Throughput Screening Facility, 2010):
# The full ranking holds about 110,000 compounds; the median of “z-score” is about -0.1, and the highest 2% start at about 2. This is one part of the list.
# Target: Metabotropic glutamate receptor 8 (Rattus norvegicus) (UniProt P70579)
# Assay: rat mGluR8 modulators via GIRK flux, primary screen, cell-based, thallium flux, HTS (AID 488969)
# Details: HEK293 rat mGluR8, GIRK (G protein-gated inwardly rectifying potassium channel) thallium flux, FluoZin2; at 10 µM; stronger effect = higher value; submaximal glutamate (EC20) added with thallium
# UniProt P70579, sequence (P70579 whole entry, looked up): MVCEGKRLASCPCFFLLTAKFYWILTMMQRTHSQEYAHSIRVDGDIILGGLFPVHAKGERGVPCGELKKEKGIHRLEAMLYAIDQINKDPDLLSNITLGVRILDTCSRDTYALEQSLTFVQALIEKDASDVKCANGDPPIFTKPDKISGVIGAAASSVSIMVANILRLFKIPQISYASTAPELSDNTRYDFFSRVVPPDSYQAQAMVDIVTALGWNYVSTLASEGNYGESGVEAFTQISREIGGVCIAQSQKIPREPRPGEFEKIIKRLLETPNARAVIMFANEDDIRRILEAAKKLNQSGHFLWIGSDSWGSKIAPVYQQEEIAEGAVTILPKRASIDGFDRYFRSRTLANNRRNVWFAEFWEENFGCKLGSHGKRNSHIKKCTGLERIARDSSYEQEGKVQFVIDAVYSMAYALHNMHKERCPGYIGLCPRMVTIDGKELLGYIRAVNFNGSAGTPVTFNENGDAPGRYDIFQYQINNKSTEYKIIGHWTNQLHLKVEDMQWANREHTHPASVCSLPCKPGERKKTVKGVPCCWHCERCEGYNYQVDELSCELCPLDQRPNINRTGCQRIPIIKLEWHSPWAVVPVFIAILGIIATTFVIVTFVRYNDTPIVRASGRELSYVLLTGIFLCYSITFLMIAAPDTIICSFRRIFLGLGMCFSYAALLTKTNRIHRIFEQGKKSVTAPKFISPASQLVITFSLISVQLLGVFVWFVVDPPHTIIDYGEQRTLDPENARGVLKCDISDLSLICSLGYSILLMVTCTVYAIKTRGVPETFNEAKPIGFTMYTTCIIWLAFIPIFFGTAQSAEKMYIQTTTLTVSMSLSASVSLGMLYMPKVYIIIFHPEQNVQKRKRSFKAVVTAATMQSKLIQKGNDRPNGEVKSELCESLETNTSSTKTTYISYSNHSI
row,SMILES,z-score
1,O=C(COc1ccccc1Cl)Nc1cc(Cl)ccc1Oc1ccccc1,-0.0408
2,COc1ccccc1NC(=O)C1=C(C)Nc2ncnn2C1c1cccs1 (centres undefined),-0.283
3,Cc1onc(C(=O)/C=C/N(C)C)c1C(=O)Nc1nccs1,-0.266
4,O=C1c2ccccc2C(=O)N1CCSc1ncn[nH]1,0.252
5,CCOC(=O)c1cnc(-n2nc(C)cc2C)nc1Nc1ccccc1OC,0.0785
6,CCOC(=O)c1cnc(SC)nc1Nc1cccc(F)c1,0.141
7,CCc1ccc(-c2cn(-c3nc(C)cc(C)n3)c(=N)o2)cc1,-0.136
8,CCOC(=O)N1CCN(Cc2nc(-c3ccc(OC)cc3)no2)CC1,0.0937
9,Cc1ccc2nc(C)c(C(=O)N/N=C/c3cccs3)cc2c1,-0.15
10,Clc1ccc(CSc2nnc(-c3ccccn3)n2Cc2ccco2)c(Cl)c1,0.104
11,O=C(CSc1ccc(-c2cccs2)nn1)NCc1ccccc1Cl,0.0392
12,O=C(Cn1cnc2c(cnn2-c2ccccc2)c1=O)NCCc1ccccc1,-0.233
13,CC1(c2ccc(OC(F)F)cc2)NC(=O)N(CC(=O)Nc2ccc3c(c2)OCO3)C1=O (centres undefined),-0.263
14,Cc1ccc(NC(=O)c2cc(S(=O)(=O)Nc3ccc(C)cc3)cs2)cc1,-0.235
15,C=CCc1ccccc1OCC(O)CN1CCN(c2ccccc2F)CC1 (centres undefined),0.0351
16,Cc1cc(=O)[nH]c(-n2nc(C)c(Oc3ccccc3O)c2C)n1,-0.0623
17,O=C(Nc1ccccc1)N(Cc1ccccc1)C1=NCCS1,0.0189
18,Cc1ccc(SCC(=O)NC(=O)NCc2ccco2)cc1C,-0.239
19,Clc1cc(Br)ccc1OCCn1ccnc1,0.187
20,O=c1[nH]c2ccc(Cl)cc2c(O)c1-c1ccccc1,-0.00451
21,Cc1ccc(S(=O)(=O)Nc2cccc(NC(=O)CN3CCCCC3)c2)cc1,-0.385
22,COc1ccccc1OC(C)C(=O)Nc1nc(-c2ccc(S(=O)(=O)N3CCOCC3)cc2)cs1 (centres undefined),-0.0764

row,SMILES,z-score
1,Cn1cccc1Cc1nnc(SCC(=O)Nc2ccccc2F)n1-c1ccc(F)cc1,-0.0639
2,O=C(CNC(=O)c1cccs1)NC1=NCCS1,0.647
3,O=C1N(CCCCN2C(=O)C3(OCCO3)c3ccccc32)c2ccccc2C12OCCO2,-0.00606
4,COc1ccc(OCCCON2C(=O)c3ccccc3C2=O)cc1,-0.357
5,CCc1ccc2nc(N3C(=O)C(O)=C(C(=O)c4ccco4)C3c3cccs3)sc2c1 (centres undefined),-1.1
6,COc1ccc(/C=N\NC(=O)CCN2CCN(c3ccccc3)CC2)cc1OC,-0.199
7,O=c1[nH][nH]c(-c2ccccc2O)c1C(C[N+](=O)[O-])c1ccccc1 (centres undefined),-0.052
8,O=C(O)C1C(c2ccccc2)C(C(=O)Oc2ccccc2)C1c1ccccc1 (centres undefined),-0.122
9,COc1ccccc1OCCn1cc(C#N)c2ccccc21,-0.18
10,Cc1nc2cc(-c3cccc(F)c3)nn2c(C)c1CCC(=O)NC(C)CCc1ccco1 (centres undefined),-0.697
11,CC(=O)c1cc(-c2ccccc2)[nH]c1N1CCCC1,-0.0239
12,COC(=O)COc1ccc(/C=N/NC(=O)c2ccc(N(Cc3ccccc3)S(C)(=O)=O)cc2)cc1,-1.39
13,O=C(NC1CCN(Cc2ccccc2)CC1)C12CC3CC(CC(C3)C1)C2,1.2
14,O=C(/C=C/c1cc([N+](=O)[O-])ccc1OC(F)F)NCc1ccc(F)cc1,-0.205
15,O=C(c1ccc(Br)cc1)N1CCN(S(=O)(=O)c2ccccc2)CC1,-0.654
16,CCOC(=O)c1cc(C)sc1/N=C/C1C(=O)CCCC1=O,-0.435
17,O=C(NCC(=O)N(CCc1ccccc1)C(C(=O)NC1CCCC1)c1cccnc1)c1ccco1 (centres undefined),0.363
18,CC(=O)Nc1ccc(/C=N/NC(=O)c2cc3cc(C)ccc3nc2C)cc1,-0.796
19,COc1ccc(/C=C/C(=O)Nc2nonc2NC(C)=O)cc1,0.105
20,COC(=O)c1ccccc1S(=O)(=O)N1Cc2cc([N+](=O)[O-])ccc2Oc2ccccc21,-0.935
21,O=C(COc1ccc(C(=S)N2CCOCC2)cc1)N1CCCC1,-0.301
22,COc1ccc(-c2cc(C(F)(F)F)nc(SCCC(=O)NCc3ccco3)n2)cc1,-0.0113

row,SMILES,z-score
1,COc1ccc(/C=C2\CCCC3C2=NN(C(=O)COC(=O)CNC(=O)c2ccccc2)C3c2ccc(OC)cc2)cc1 (centres undefined),0.0844
2,S=C(Nc1ccccc1)N1N=CCC1c1ccccc1 (centres undefined),-0.0985
3,Nc1ccc(C(=O)OCC(=O)N2CCOCC2)cc1[N+](=O)[O-],-0.0687
4,CCN(CC)CCOc1ccc2nc(N(C)C)sc2c1,-0.36
5,O=C(NCc1ccc(N2CCCC2=O)cc1)NC1CCCCC1,1.5
6,COc1ccc(OC)c(C2C(C#N)=C(N)Oc3c2c(C)nn3-c2ccc(C)cc2)c1 (centres undefined),-1
7,CSCC[C@H](NC(=O)OCc1ccccc1)C(=O)O,0.0269
8,Cc1ccc(SCc2[nH]nc3c2C2(C(=O)N(C)c4ccccc42)C(C#N)=C(N)O3)cc1 (centres undefined),0.00725
9,S=C(Nc1ccccc1Cl)N(CCCN1CCOCC1)Cc1ccco1,-0.532
10,Nc1c(C(=O)c2ccccc2)sc2snc(SCC(=O)c3ccccc3)c12,-0.438
11,COCCN1Cc2cccc(C(=O)NC(C)c3cccs3)c2C1=O (centres undefined),-1.13
12,O=C(Nc1ccc(Br)cc1)c1ccco1,0.0377
13,Cc1cc(C)nc(NC(=O)c2ccc(Cl)cc2[N+](=O)[O-])c1,-0.377
14,OCCCc1nc2n(n1)C(c1ccccc1)C=C(c1ccccc1)N2 (centres undefined),-0.449
15,COC(=O)C(O)(CC(=O)Nc1ccccc1OC)C(F)(F)F (centres undefined),0.901
16,Cc1cccc(NC(=S)NC(=O)CCc2ccccc2)c1,2.74
17,CCCCCC(=O)NC(NC(=S)Nc1ccc(S(N)(=O)=O)cc1)C(Cl)(Cl)Cl (centres undefined),-0.128
18,COC(=O)c1sc2ncccc2c1OCc1ccc(Cl)cc1,-0.0869
19,O=C(NCc1ccccc1)[C@@H]1CSC2c3ccccc3C(=O)N21 (some centres undefined),-0.264
20,Brc1cccc(-c2nnc3sc(CNCc4ccco4)cn23)c1,-0.812
21,CCOC(=O)COn1c(=O)c(-c2ccc(OC)c(OC)c2)[n+]([O-])c2ccccc21,0.69
22,O=C(NCC1CCCO1)C(C(=O)c1ccccc1)n1cc(Cl)ccc1=O (centres undefined),-0.0542

row,SMILES,z-score
1,CCOC(=O)C(C#N)C(Cc1ccccc1)c1ccco1 (centres undefined),-0.32
2,COc1ccc(-c2cc(-c3ccc(F)cc3)nc(N3CCN(C)CC3)n2)cc1,0.083
3,CCOC(=O)N1CCC(Nc2ncnc3c2cnn3-c2ccc(C)cc2C)CC1,-1.15
4,CCCCNC(=O)CSc1cc(=O)n(C)c2ccccc12,-0.878
5,O=C(O)C1Cc2[nH]cnc2C(c2ccccc2O)N1 (centres undefined),-0.212
6,COc1cc2c(cc1OC)CN(C(=O)CC1CC3CCC1C3)CC2 (centres undefined),-0.444
7,COc1cccc(NC(=O)N2CCC(C(=O)Nc3ccc(C)cc3C)CC2)c1,0.871
8,N#Cc1ccc(C(=O)NCC(c2ccco2)N2CCCC2)cc1 (centres undefined),0.0484
9,COc1ccc(N(CC(=O)Nc2ccc(S(=O)(=O)N3CCCCC3)cc2)S(C)(=O)=O)cc1OC,-0.135
10,CCn1c(SCC(=O)N2CCCCC2)nc(O)cc1=O,-0.258
11,CCn1ccc(C(=O)Nc2ccc(S(=O)(=O)Nc3ccccc3OC)cc2)n1,-0.423
12,Cc1ccc(Cn2ncc(Cl)c(Cl)c2=O)cc1,-0.51
13,CCOc1cccc(C(=O)Nc2ccc3oc(Cc4ccc(Cl)cc4)nc3c2)c1,-0.351
14,COC(=O)C1=C(C)N(Cc2cccnc2)C(=O)C1,-0.233
15,Cc1ccn2cc(CCNC(=O)C3CCCCC3)nc2c1,-0.0264
16,COc1ccc(C(=O)Nc2ccccc2-c2nnn(CC(=O)NCc3ccco3)n2)cc1,0.233
17,CC(=NCc1ccco1)c1c(O)n(C2CCCCC2)c(=O)[nH]c1=O,-0.28
18,CCOC(=O)c1sc2ccccc2c1OC(=O)c1ccc(C)cc1,-0.233
19,Cn1c(N)c(C(c2ccccc2)c2c(N)n(C)c(=O)n(C)c2=O)c(=O)n(C)c1=O,-0.545
20,Cc1nn(Cc2ccc([N+](=O)[O-])cc2)c(=O)n1-c1ccc(F)cc1,0.00991
21,CCO/C=C1\C(=O)N(CC)c2ccccc21,-0.427
22,CCOC(=O)Cn1nc(C)n(-c2ccc(C(C)C)cc2)c1=O,0.324

row,SMILES,z-score
1,CCNc1nc(NCC)n2c(SC(C(=O)Nc3cc(C)ccc3OC)c3ccccc3)nnc2n1 (centres undefined),-0.463
2,O=C(COC(=O)C1(c2ccccc2F)CCCC1)N1CCc2ccccc21,0.313
3,Clc1ccc(-c2n[nH]c3c2CCC3)cc1Cl,-0.286
4,O=C(COC(=O)C1CC(O)CN1S(=O)(=O)c1ccc(Cl)cc1)c1ccccc1 (centres undefined),-0.219
5,C/C(=N\NC(=O)C1CCCN(S(=O)(=O)c2ccccc2)C1)c1cccnc1 (centres undefined),-0.109
6,Cn1cc(Br)c(C(=O)Nc2c(F)c(F)c(F)c(F)c2F)n1,-0.563
7,Cc1ccc(NC(=O)COc2ccc(C(=O)NCCc3ccccc3)cc2)cc1,-0.232
8,CCn1c2ccccc2c2cnc(N=CN(C)C)c(C#N)c21,0.072
9,O=C(NCCCN1CCCC1=O)c1ccccc1NS(=O)(=O)c1ccc(Br)cc1,-0.938
10,COc1cc2c3nnc(-c4ccc(F)cc4)c-3cn(Cc3cccc(C)c3)c2cc1OC,-0.28
11,COc1cccc(Nc2nc(-c3ccc4c(c3)OCCO4)cs2)c1,-0.0336
12,C/C=C/c1ccc(OCCCNCC(C)O)c(OC)c1 (centres undefined),1.74
13,CCCOc1ccc2c(=O)c(N3C(=O)c4ccccc4C3=O)c(C)oc2c1,-0.186
14,CC(C)CCn1c(SCC(=O)N2CC(=O)Nc3ccccc32)nc2scc(-c3cccs3)c2c1=O,-0.0179
15,COC(=O)C1=C(C)NC(C)=C(C(=O)OC)C1c1ccc2ccccc2n1,0.297
16,Nc1[nH]nc2nc(N3CCOCC3)nc(-c3ccccc3)c12,-0.0386
17,S=c1[nH]cc(-c2ccccc2)n1-c1cccc(Cl)c1,2.94
18,Cc1nn(-c2ccccc2)c(N)c1C(c1ccc(C(C)C)cc1)c1c(C)nn(-c2ccccc2)c1N,0.356
19,CCN(CC)S(=O)(=O)c1ccc(NC(=O)c2cccc3c2C(=O)N(CCOC)C3)cc1,-0.302
20,CCCn1cc2c(c1-c1cccc(C)c1)c(=O)n(C)c(=O)n2C,-0.197
21,CCCc1nc(Nc2nc3ccccc3o2)nc(C)c1C(=O)OCC,0.35
